Results on 72 sequences are retold here after paper PMC10726135.

The list shows a part of the results. At the low end of the ranking, values are background and their order means little. Measured with an extract: partners may take part in the binding.

The target of this assay is T1, HNF4alpha2 (COS-7 nuclear extract) (UniProt P41235).
T1 sequence: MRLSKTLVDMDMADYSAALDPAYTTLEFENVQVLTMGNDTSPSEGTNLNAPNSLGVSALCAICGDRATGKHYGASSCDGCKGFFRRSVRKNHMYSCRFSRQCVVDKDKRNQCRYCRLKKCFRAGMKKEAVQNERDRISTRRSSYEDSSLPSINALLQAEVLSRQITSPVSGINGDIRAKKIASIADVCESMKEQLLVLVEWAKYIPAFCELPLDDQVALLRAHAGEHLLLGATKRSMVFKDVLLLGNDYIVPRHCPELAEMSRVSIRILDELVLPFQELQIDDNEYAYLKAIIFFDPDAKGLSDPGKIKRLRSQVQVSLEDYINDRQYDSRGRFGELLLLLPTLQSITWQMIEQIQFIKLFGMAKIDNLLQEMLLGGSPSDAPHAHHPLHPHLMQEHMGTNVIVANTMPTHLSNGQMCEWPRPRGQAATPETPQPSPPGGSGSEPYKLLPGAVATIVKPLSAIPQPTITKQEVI
Kind of assay: protein-binding microarray. To be noted: COS-7 nuclear extract on double-stranded Agilent 4x180k PBM; binding buffer, salt, pH and temperature not given; high values mean tight binding; double strand, one strand shown; sequences stand for … in …GCCTAGGGAGATTAGAGTATCGGTCGA
For TGCTTAACTATGTTTATCAGAGCAAAGTTC, the binding signal (log2 normalized intensity) stood at 3.34.

With GACCCTGAAAACAGGGCAAGGAACGGAATG, the binding signal (log2 normalized intensity) was determined as 0.0634.

In the case of GTGAGCAGGTGTGTGGCATCTTGGGGTCAA, the binding signal (log2 normalized intensity) is 3.48.

Turning to TGAGGCCTGGCCGAGGTTGCCCAGCTATTA, the binding signal (log2 normalized intensity) was -0.984.

On to TTTTAGATTAGGAGAGGGAGAGTGAGTGAG, for which the binding signal (log2 normalized intensity) was found to be 1.36.

For the sequence ACCGTAGCCTGACCATCACCACTTCAAGCT, the binding signal (log2 normalized intensity) is -1.15.

TTATCATAAGTCAGCCTGGCTGAAGACCTG: the binding signal (log2 normalized intensity) was 0.568.

Take GGCAGTGTGGCACCCTCCCTTCCCGGGGAG: the binding signal (log2 normalized intensity) is -1.06.

Turning to GAGAGGAGAAAGAGCAATCTCTCATCTGCC, the binding signal (log2 normalized intensity) was -0.986.

Consider ATCTCTTGACTCTTCCCATCTAACTGCCCC, for which the binding signal (log2 normalized intensity) came out at 4.21.

Regarding GCTCTCAGAATAGCAAATCTGTTACGAGTG, the binding signal (log2 normalized intensity) was 0.334.

Turning to AGTATAATAAAGTGGCAACCCTTGACCCCA, the binding signal (log2 normalized intensity) was determined as 5.82.

As to CGGCAGAGCACCTGGATAAGCCAGATAATT, the binding signal (log2 normalized intensity) is -1.3.

Regarding AATGACATTTTGGACTACTTCATGTCCTGT, the binding signal (log2 normalized intensity) stood at 0.916.

With GCAAGACCAAACAAAATTAATGTGCCTGCC, the binding signal (log2 normalized intensity) is -1.16.

With CCTGGCTTGTTTGCAAAGCAACTCCTCTGT, the binding signal (log2 normalized intensity) is 0.697.

In the case of ACAAGGCAGACTTGGATTTTCTCATCCCAG, the binding signal (log2 normalized intensity) is -1.05.

With TTGTAGGGGGAGGGTAAATATAGTTAAAGC, the binding signal (log2 normalized intensity) was -0.764.

On to TCTAGGTCACCACCTTTTTTGGCCTTTACC, for which the binding signal (log2 normalized intensity) was 1.84.

As to AGGTGGGGGCCGCCCATTGGGATCCATATC, the binding signal (log2 normalized intensity) is -1.06.

In the case of TATCAAGGGTGAGGGATTTTCAGTATACTG, the binding signal (log2 normalized intensity) is -0.322.

With CTTCCCCACCCCCTCTCCTCCCTCGGCCGG, the binding signal (log2 normalized intensity) was determined as 5.88.

For the sequence CTTAAAAAAAAAGAACAGCTTTGGTATTAC, the binding signal (log2 normalized intensity) was -1.07.

As for ATGGCCACCCTTCAGCAAATAGTGGGAGGT, the binding signal (log2 normalized intensity) is -0.331.

As for TTTTATTATATTGAATTCCTGGAAATCCCG, the binding signal (log2 normalized intensity) is -0.687.

On to CTGGAACCAACATGGCAGACAGCAGTCTGA, for which the binding signal (log2 normalized intensity) was -1.2.

As for ATGCTGCTCTCCCACTCCCCCTGCTGGACA, the binding signal (log2 normalized intensity) came out at 3.93.

With GAAGTAAAACAGGTAGAGAGCTGTCTGCTG, the binding signal (log2 normalized intensity) was -1.04.

In the case of TATCTTGTCTCTTCTTGTACCTCTGGTGAT, the binding signal (log2 normalized intensity) is 1.77.

In the case of AAGGTAGGCAGAGAGGCTGCTCAGTTTAAG, the binding signal (log2 normalized intensity) is -0.88.

As for CAGGACTCTGGGACCGCAGGGGGCTCCCGG, the binding signal (log2 normalized intensity) was -1.16.

AAGATGGGCATTAGGTGGACAGGGGTGTGT: the binding signal (log2 normalized intensity) worked out at 1.78.

Regarding TTGGCAAGTTAATGTGGCCTAATGTTTGTG, the binding signal (log2 normalized intensity) was found to be 1.61.

For the sequence CTCTCATAAAAGAGGCCAATTTCTTGTCTG, the binding signal (log2 normalized intensity) is -0.124.

As for CACAGGAAAGGAGACTAAAGGTCAAAACCA, the binding signal (log2 normalized intensity) came to 3.38.

With CACTCCCAGTCCAGATATAGGGGAGGTCCT, the binding signal (log2 normalized intensity) was -1.05.

ATTATGCACCCGTGGTTGATCAAAGGTTGG: the binding signal (log2 normalized intensity) came to 2.95.

With AATAAGCATTCTGTTTCCTACTGACCTCCG, the binding signal (log2 normalized intensity) stood at 2.41.

AGTGTAAGGACATTGCCCCCTATGTAAAGG: the binding signal (log2 normalized intensity) was 3.28.

Take GGGTTACCGGCAGAGAGAAGCCACTGCGAC: the binding signal (log2 normalized intensity) is -1.07.

On to GTACTATGACCCAAACTTCACAAAAATGAG, for which the binding signal (log2 normalized intensity) was found to be 1.22.

TTCCCAAGAAGAGCCCAGACAAGCATTCTG: the binding signal (log2 normalized intensity) is -0.922.

In the case of TGAGACCTGTGATGGTCACTATCTGGGCCA, the binding signal (log2 normalized intensity) turned out to be 0.388.

Turning to CCAGCAGATGAGCCTGTTGGGAGCCAGGCA, the binding signal (log2 normalized intensity) was -1.1.

Take CAAACAAATGCCATAGTCCAAAGTGGCAGT: the binding signal (log2 normalized intensity) was determined as 1.08.

On to ACCTTTGCCCTTGACTTTTTGTGGGGGCAG, for which the binding signal (log2 normalized intensity) turned out to be 2.38.

In the case of GTCAAGTAGAGACCTGTCTTCCTGGTGACC, the binding signal (log2 normalized intensity) was 2.19.

TGTGTGTGTGTGTGTGTCTGTGTGTGTGTG: the binding signal (log2 normalized intensity) amounted to 3.59.

For CCTATCTGGTGCAGTCCAAGAGGCCCAGGT, the binding signal (log2 normalized intensity) was -1.19.

In the case of TCTGCAAGGCAACTGACCTTTGGATCTGGG, the binding signal (log2 normalized intensity) worked out at 7.21.

For GACCCAGGAGGAGAAGGGTGGGAATTGGGA, the binding signal (log2 normalized intensity) was -1.1.

As for CAGGCCGGCTTGCGTCCCCAGGTGAACTCA, the binding signal (log2 normalized intensity) is 1.41.

Take TCACAATTAAGCCAAACTTGGGTTTATGGC: the binding signal (log2 normalized intensity) was determined as 0.583.

For the sequence AAGGAGATTCCTGTGTCAGCAGAAGGCCCC, the binding signal (log2 normalized intensity) turned out to be 0.716.

Take CCCAGGTCCAGCCTTTGGGCAGGGGCATCC: the binding signal (log2 normalized intensity) is -0.72.

Regarding CAGTGGTAACCACAGTACTGTCTTTTTGCC, the binding signal (log2 normalized intensity) is -0.854.

With GAGTTCTTCAAGTCAGTCAAAATGAATAGT, the binding signal (log2 normalized intensity) turned out to be 1.32.

With AAGCACATACTTCTTCCTGTTTGACCTTCG, the binding signal (log2 normalized intensity) was 5.02.

As to CTCTGGGAGGGAGGAGCACAGAAGGAGAGA, the binding signal (log2 normalized intensity) was -1.19.

TCTTACAACATAGTGATTTAGGCTTTTGGG: the binding signal (log2 normalized intensity) stood at 0.323.

With AAGCAGAGGGCGAGAAGTAGGTGCAAGGGA, the binding signal (log2 normalized intensity) was -1.19.

With GCAGTAGTGCGATGATCATGGCTCACTGCA, the binding signal (log2 normalized intensity) is -1.17.

Consider ACAAAACATTTGGTGTAAGCACTTGTGGTA, for which the binding signal (log2 normalized intensity) amounted to 0.863.

ATCAAACCTGTTATTTGCGCCTCCCTAGAG: the binding signal (log2 normalized intensity) is -1.09.

As to AGAGATTTTCACATGGAATGTCGTGCCCTA, the binding signal (log2 normalized intensity) amounted to 1.21.

On to AGGTTTCAGAGGCTCACAGAGAGGCTTCTG, for which the binding signal (log2 normalized intensity) was -0.726.

Take CTCCCGCAGCATACACTTTCCGTACTTTTC: the binding signal (log2 normalized intensity) worked out at 0.833.

Consider GACTCCAGTGATCTTATCGCCTAGTACTCC, for which the binding signal (log2 normalized intensity) was -0.841.

As for ATCTCTGATGCCCTTTGGCCTTTCTAATTA, the binding signal (log2 normalized intensity) was found to be 5.13.

In the case of TCCCCTTTCTGTTGGAAGCTGATAAGCCAA, the binding signal (log2 normalized intensity) was 0.944.

Regarding GCCCTGCCACCCCCGTTAATTTCTAACCAA, the binding signal (log2 normalized intensity) was 2.5.

Turning to CTTGTTGGTAACCGGAGCAAAGGTTACTCT, the binding signal (log2 normalized intensity) turned out to be 4.05.
